From publication PMC9911399, “Two distinct binding modes provide the RNA-binding protein RbFox with extraordinary sequence specificity” come the findings set out here.

The labels stand for the following.
T1: RBFOX1 RRM RbFoxmut (Fox-RRM*) (Homo sapiens, UniProt Q9NWB1 109-208, R118D;E147R;N151S;E152T)
T1 sequence: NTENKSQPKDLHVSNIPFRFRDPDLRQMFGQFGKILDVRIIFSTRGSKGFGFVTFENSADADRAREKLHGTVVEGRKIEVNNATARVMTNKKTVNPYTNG

B1: GGAGUUC (DNA:RNA)
RNA: GGGAGACCGGAAUUCAGAUUGUCCGGAGUUCUUAAAUCCCGUCGUAGCCACCA
DNA 1: CAATCTGAATTCCGGTCTCCC
DNA 2: TGGTGGCTACGACGGGATT
B2: AAAGAUG (DNA:RNA)
RNA: B1 RNA with G25A, G26A, U29A, C31G
DNA 1: CAATCTGAATTCCGGTCTCCC
DNA 2: TGGTGGCTACGACGGGATT
B3: GAGUAGC (DNA:RNA)
RNA: B1 RNA with G26A, A27G, G28U, U29A, U30G
DNA 1: CAATCTGAATTCCGGTCTCCC
DNA 2: TGGTGGCTACGACGGGATT
B4: UAUACUG (DNA:RNA)
RNA: B1 RNA with G25U, G26A, A27U, G28A, U29C, C31G
DNA 1: CAATCTGAATTCCGGTCTCCC
DNA 2: TGGTGGCTACGACGGGATT
B5: GACACUG (DNA:RNA)
RNA: B1 RNA with G26A, A27C, G28A, U29C, C31G
DNA 1: CAATCTGAATTCCGGTCTCCC
DNA 2: TGGTGGCTACGACGGGATT
B6: AUUUUCC (DNA:RNA)
RNA: B1 RNA with G25A, G26U, A27U, G28U, U30C
DNA 1: CAATCTGAATTCCGGTCTCCC
DNA 2: TGGTGGCTACGACGGGATT
B7: CUGUCUG (DNA:RNA)
RNA: B1 RNA with G25C, G26U, A27G, G28U, U29C, C31G
DNA 1: CAATCTGAATTCCGGTCTCCC
DNA 2: TGGTGGCTACGACGGGATT
B8: AUCGUAU (DNA:RNA)
RNA: B1 RNA with G25A, G26U, A27C, U30A, C31U
DNA 1: CAATCTGAATTCCGGTCTCCC
DNA 2: TGGTGGCTACGACGGGATT
B9: AGGACGG (DNA:RNA)
RNA: B1 RNA with G25A, A27G, G28A, U29C, U30G, C31G
DNA 1: CAATCTGAATTCCGGTCTCCC
DNA 2: TGGTGGCTACGACGGGATT
B10: AGAUGAA (DNA:RNA)
RNA: B1 RNA with G25A, G28U, U29G, U30A, C31A
DNA 1: CAATCTGAATTCCGGTCTCCC
DNA 2: TGGTGGCTACGACGGGATT
B11: UCCCAUG (DNA:RNA)
RNA: B1 RNA with G25U, G26C, A27C, G28C, U29A, C31G
DNA 1: CAATCTGAATTCCGGTCTCCC
DNA 2: TGGTGGCTACGACGGGATT
B12: UCGCAUG (DNA:RNA)
RNA: B1 RNA with G25U, G26C, A27G, G28C, U29A, C31G
DNA 1: CAATCTGAATTCCGGTCTCCC
DNA 2: TGGTGGCTACGACGGGATT
B13: UGUGCGC (DNA:RNA)
RNA: B1 RNA with G25U, A27U, U29C, U30G
DNA 1: CAATCTGAATTCCGGTCTCCC
DNA 2: TGGTGGCTACGACGGGATT
B14: AUAUUAC (DNA:RNA)
RNA: B1 RNA with G25A, G26U, G28U, U30A
DNA 1: CAATCTGAATTCCGGTCTCCC
DNA 2: TGGTGGCTACGACGGGATT
B15: UAGGAGU (DNA:RNA)
RNA: B1 RNA with G25U, G26A, A27G, U29A, U30G, C31U
DNA 1: CAATCTGAATTCCGGTCTCCC
DNA 2: TGGTGGCTACGACGGGATT
B16: GAAGAUU (DNA:RNA)
RNA: B1 RNA with G26A, U29A, C31U
DNA 1: CAATCTGAATTCCGGTCTCCC
DNA 2: TGGTGGCTACGACGGGATT
B17: GCGCCAC (DNA:RNA)
RNA: B1 RNA with G26C, A27G, G28C, U29C, U30A
DNA 1: CAATCTGAATTCCGGTCTCCC
DNA 2: TGGTGGCTACGACGGGATT
B18: GUCGGAG (DNA:RNA)
RNA: B1 RNA with G26U, A27C, U29G, U30A, C31G
DNA 1: CAATCTGAATTCCGGTCTCCC
DNA 2: TGGTGGCTACGACGGGATT
B19: UACCGGG (DNA:RNA)
RNA: GGGAGACCGGAAUUCAGAUUGUCCUACCGGGUUAAAUCCCGUCGUAGCCACCA
DNA 1: CAATCTGAATTCCGGTCTCCC
DNA 2: TGGTGGCTACGACGGGATT
B20: GUCACCG (DNA:RNA)
RNA: B19 RNA with U25G, A26U, C28A, G29C, G30C
DNA 1: CAATCTGAATTCCGGTCTCCC
DNA 2: TGGTGGCTACGACGGGATT
B21: GAUCAUC (DNA:RNA)
RNA: B1 RNA with G26A, A27U, G28C, U29A
DNA 1: CAATCTGAATTCCGGTCTCCC
DNA 2: TGGTGGCTACGACGGGATT
B22: CUUUAAG (DNA:RNA)
RNA: B19 RNA with U25C, A26U, C27U, C28U, G29A, G30A
DNA 1: CAATCTGAATTCCGGTCTCCC
DNA 2: TGGTGGCTACGACGGGATT
B23: UUUCGCG (DNA:RNA)
RNA: B19 RNA with A26U, C27U, G30C
DNA 1: CAATCTGAATTCCGGTCTCCC
DNA 2: TGGTGGCTACGACGGGATT
B24: CAUUUCC (DNA:RNA)
RNA: B1 RNA with G25C, G26A, A27U, G28U, U30C
DNA 1: CAATCTGAATTCCGGTCTCCC
DNA 2: TGGTGGCTACGACGGGATT
B25: GGGCAGA (DNA:RNA)
RNA: B1 RNA with A27G, G28C, U29A, U30G, C31A
DNA 1: CAATCTGAATTCCGGTCTCCC
DNA 2: TGGTGGCTACGACGGGATT
B26: AAUGCUC (DNA:RNA)
RNA: B1 RNA with G25A, G26A, A27U, U29C
DNA 1: CAATCTGAATTCCGGTCTCCC
DNA 2: TGGTGGCTACGACGGGATT
B27: UUUGCGA (DNA:RNA)
RNA: B19 RNA with A26U, C27U, C28G, G29C, G31A
DNA 1: CAATCTGAATTCCGGTCTCCC
DNA 2: TGGTGGCTACGACGGGATT
B28: GUGUGCU (DNA:RNA)
RNA: B1 RNA with G26U, A27G, G28U, U29G, U30C, C31U
DNA 1: CAATCTGAATTCCGGTCTCCC
DNA 2: TGGTGGCTACGACGGGATT
B29: GAUGACU (DNA:RNA)
RNA: B1 RNA with G26A, A27U, U29A, U30C, C31U
DNA 1: CAATCTGAATTCCGGTCTCCC
DNA 2: TGGTGGCTACGACGGGATT
B30: GCCUUAU (DNA:RNA)
RNA: B1 RNA with G26C, A27C, G28U, U30A, C31U
DNA 1: CAATCTGAATTCCGGTCTCCC
DNA 2: TGGTGGCTACGACGGGATT
B31: GGAACCU (DNA:RNA)
RNA: B1 RNA with G28A, U29C, U30C, C31U
DNA 1: CAATCTGAATTCCGGTCTCCC
DNA 2: TGGTGGCTACGACGGGATT

Numbering of substitutions follows the chain as printed; changes in the protein carry UniProt numbers. The list shows a part of the results.

This assay deals with T1, RBFOX1 RRM RbFoxmut (Fox-RRM*). Nature of the assay: EMSA; HiTS-Eq, 1 nM pool, 10 min; buffer printed only for the single-RNA assays: 10 mM Tris pH 7.5, 150 mM NaCl, 3.4 mM EDTA, 0.001% NP-40, 30 C. The following applies: tags: His6 N-terminal (pET28a); label: 5' 32P. The method, boiled down: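 A pool of RNA with 7 randomized nucleotides, 5′-radiolabelled and with DNA-annealed flanks, was equilibrated at 1 nM for 10 min in 50 µL with purified RbFox RRM, wild type or mutant, across increasing protein concentrations. Free RNA was separated by 8% native PAGE, excised, reverse-transcribed, barcoded by PCR and sequenced. Relative association constants were obtained from read-count changes of each RNA species versus the control reaction and normalised to the cognate motif.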
As to B1, the binding signal is 0.108 KA relative to UGCAUGU.

Take B2: the binding signal was 0.0796 KA relative to UGCAUGU.

Take B3: the binding signal was 0.108 KA relative to UGCAUGU.

For B4, the binding signal was 0.0822 KA relative to UGCAUGU.

As to B5, the binding signal was 0.0456 KA relative to UGCAUGU.

Consider B6, for which the binding signal was 0.0544 KA relative to UGCAUGU.

For the molecule B7, the binding signal was 0.23 KA relative to UGCAUGU.

Take B8: the binding signal was 0.154 KA relative to UGCAUGU.

In the case of B9, the binding signal is 0.0928 KA relative to UGCAUGU.

On to B10, for which the binding signal was 0.0855 KA relative to UGCAUGU.

For B11, the binding signal is 0.0994 KA relative to UGCAUGU.

For the molecule B12, the binding signal is 1.06 KA relative to UGCAUGU.

In the case of B13, the binding signal was 0.144 KA relative to UGCAUGU.

With B14, the binding signal was 0.148 KA relative to UGCAUGU.

With B15, the binding signal is 0.105 KA relative to UGCAUGU.

Regarding B16, the binding signal is 0.0675 KA relative to UGCAUGU.

On to B17, for which the binding signal is 0.0616 KA relative to UGCAUGU.

For the molecule B18, the binding signal is 0.107 KA relative to UGCAUGU.

In the case of B19, the binding signal is 0.0691 KA relative to UGCAUGU.

For the molecule B20, the binding signal is 0.0833 KA relative to UGCAUGU.

Consider B21, for which the binding signal was 0.04 KA relative to UGCAUGU.

Take B22: the binding signal is 0.16 KA relative to UGCAUGU.

In the case of B23, the binding signal is 0.136 KA relative to UGCAUGU.

On to B24, for which the binding signal was 0.0842 KA relative to UGCAUGU.

Take B25: the binding signal was 0.106 KA relative to UGCAUGU.

On to B26, for which the binding signal was 0.0768 KA relative to UGCAUGU.

For B27, the binding signal was 0.0864 KA relative to UGCAUGU.

For B28, the binding signal is 0.126 KA relative to UGCAUGU.

Consider B29, for which the binding signal is 0.0427 KA relative to UGCAUGU.

As to B30, the binding signal was 0.082 KA relative to UGCAUGU.

As to B31, the binding signal was 0.137 KA relative to UGCAUGU.
